The record followed here is a collection of fitness landscapes (doi:10.1016/j.celrep.2020.107928).

Sequences and labels used below:
B1: Caulobacter ParB omega fusion; a variant is named by its letters at X, in order, B8GW30 (parent)
chain: MESVVVGEPGMSEGRRGLGRGLSALLGEVDAAPAQAPGEQLGGSREAPIEILQRNPDQPRRTFREEDLEDLSNSIREKGVLQPILVRPSPDTAGEYQIVAGERAWRAAQRAGLKTVPIMVRELDDLAVLEIGIIENVQRADLNVLEEALSYKVLMEKFERTQENIAQTIGKSXSHVANXMRLLXLPDEVQSYLVSGELTAXHARAIAAAADPVALAKQIIEGGLSVRETEALARKAPNLSAGKSKGGRPPRVKDTDTQALESDLSSVLGLDVSIDHRGSTGTLTITYATLEQLDDLCNRLTRGI

The full ranking holds about 81,000 sequences; the median of “one-hybrid fitness for binding NBS DNA” is about -0.1, and the highest 2% start at about 0.36. Some of the results follow.

The test covers variants of B1. Description: one-hybrid fitness for binding NBS DNA (the Noc-binding site; scaled: cognate 1, non-cognate 0); higher = stronger binding. The note with it: with NBS DNA site. An outline of the steps: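 The reporter was HIS3, with the binding site 19 bp from the promoter, in E. coli USO used for bacterial one-hybrid selection of Caulobacter ParB libraries with four specificity codons randomised. Growth was on M9 lacking histidine, with 0.1 mM IPTG and 5 mM 3-AT, for 48 hours at 37°C. Illumina sequencing covered plasmids before and after selection; three replicate libraries were pooled and variants with under 10 reads dropped. A fitness score is the log change in variant-to-wild-type read ratio, rescaled to the cognate and non-cognate references.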
As for FIYR, the “one-hybrid fitness for binding NBS DNA” value is not above 0.2.
Regarding EDKR, the “one-hybrid fitness for binding NBS DNA” value is not above 0.2.
LTVR: the “one-hybrid fitness for binding NBS DNA” value is not above 0.2.
The same measure for TGFT: not above 0.2; for TFSY: not above 0.2.
Consider QSHE, for which the “one-hybrid fitness for binding NBS DNA” value is not above 0.2.
For FKRR, the “one-hybrid fitness for binding NBS DNA” value was not above 0.2.
Consider ALYV, for which the “one-hybrid fitness for binding NBS DNA” value is not above 0.2.
The same measure for TEVE: not above 0.2; for QQWL: not above 0.2.
Take MRPG: the “one-hybrid fitness for binding NBS DNA” value was not above 0.2.
For the variant RDGN, the “one-hybrid fitness for binding NBS DNA” value was not above 0.2.
With NPPD, the “one-hybrid fitness for binding NBS DNA” value is not above 0.2.
ITDS: the “one-hybrid fitness for binding NBS DNA” value was not above 0.2.
As for CGTT, the “one-hybrid fitness for binding NBS DNA” value is not above 0.2.
For the variant QEPQ, the “one-hybrid fitness for binding NBS DNA” value was not above 0.2.
As for PRVS, the “one-hybrid fitness for binding NBS DNA” value was not above 0.2.
For KWKR, the “one-hybrid fitness for binding NBS DNA” value was not above 0.2.
The same measure for AWMS: not above 0.2; for TLEN: not above 0.2.
Consider CLMT, for which the “one-hybrid fitness for binding NBS DNA” value was not above 0.2.
In the case of LDTE, the “one-hybrid fitness for binding NBS DNA” value was not above 0.2.
Take QQWG: the “one-hybrid fitness for binding NBS DNA” value was not above 0.2.
As for LLGW, the “one-hybrid fitness for binding NBS DNA” value is not above 0.2.
For TTTQ the value was not above 0.2; for LDAT, not above 0.2.
For the variant FVTV, the “one-hybrid fitness for binding NBS DNA” value was not above 0.2.
For IPKR, the “one-hybrid fitness for binding NBS DNA” value was not above 0.2.
PMWR: the “one-hybrid fitness for binding NBS DNA” value is not above 0.2.
The same measure for TSPV: not above 0.2; for LWTS: not above 0.2.
For WRKS the value was not above 0.2; for GFRN, not above 0.2; for MAFS, not above 0.2.
For RHMP the value was not above 0.2; for SDVG, not above 0.2.
Regarding KIHG, the “one-hybrid fitness for binding NBS DNA” value is not above 0.2.
In the case of RLMD, the “one-hybrid fitness for binding NBS DNA” value was not above 0.2.
The same measure for YTGI: not above 0.2; for HSRT: not above 0.2.
On to CNMM, for which the “one-hybrid fitness for binding NBS DNA” value is not above 0.2.
In the case of AHTR, the “one-hybrid fitness for binding NBS DNA” value was not above 0.2.
For QDYC the value was not above 0.2; for SFNR, not above 0.2; for ESFV, not above 0.2.
Turning to EGHI, the “one-hybrid fitness for binding NBS DNA” value is not above 0.2.
The same measure for YWPG: not above 0.2; for DPKG: not above 0.2.
For the variant AGQD, the “one-hybrid fitness for binding NBS DNA” value was not above 0.2.
With QDIA, the “one-hybrid fitness for binding NBS DNA” value is not above 0.2.
As for HQHT, the “one-hybrid fitness for binding NBS DNA” value was not above 0.2.
In the case of LPEL, the “one-hybrid fitness for binding NBS DNA” value was not above 0.2.
For VHRM the value was not above 0.2; for LMTE, not above 0.2.
As to NFLM, the “one-hybrid fitness for binding NBS DNA” value is not above 0.2.
KRKT: the “one-hybrid fitness for binding NBS DNA” value is 0.66.
Consider VAHL, for which the “one-hybrid fitness for binding NBS DNA” value is not above 0.2.
For HKVI the value was not above 0.2; for RIWG, not above 0.2; for IQRA, not above 0.2.
For the variant SHFT, the “one-hybrid fitness for binding NBS DNA” value is not above 0.2.
In the case of ICVG, the “one-hybrid fitness for binding NBS DNA” value was not above 0.2.
Turning to HYPY, the “one-hybrid fitness for binding NBS DNA” value was not above 0.2.
With TIAS, the “one-hybrid fitness for binding NBS DNA” value is not above 0.2.
In the case of QDRA, the “one-hybrid fitness for binding NBS DNA” value was not above 0.2.
The same measure for TAPT: not above 0.2; for GSAD: not above 0.2.
For GIIS, the “one-hybrid fitness for binding NBS DNA” value was not above 0.2.
YTEC: the “one-hybrid fitness for binding NBS DNA” value is not above 0.2.
With MAHF, the “one-hybrid fitness for binding NBS DNA” value was not above 0.2.
Regarding TLHM, the “one-hybrid fitness for binding NBS DNA” value is not above 0.2.
Consider CTNW, for which the “one-hybrid fitness for binding NBS DNA” value was not above 0.2.
For the variant TSER, the “one-hybrid fitness for binding NBS DNA” value was not above 0.2.
Turning to KRTY, the “one-hybrid fitness for binding NBS DNA” value is not above 0.2.
Take DCTG: the “one-hybrid fitness for binding NBS DNA” value is not above 0.2.
For HVSV the value was not above 0.2.
Take VPVL: the “one-hybrid fitness for binding NBS DNA” value is not above 0.2.
As for MCSC, the “one-hybrid fitness for binding NBS DNA” value was not above 0.2.
As for TPET, the “one-hybrid fitness for binding NBS DNA” value was not above 0.2.
For VWQS the value was not above 0.2; for LLTY, not above 0.2; for SSVE, not above 0.2.
For the variant LFVS, the “one-hybrid fitness for binding NBS DNA” value was not above 0.2.
The same measure for QDHY: not above 0.2.
The same measure for YKIK: not above 0.2; for NGIW: not above 0.2.
The same measure for RLLL: not above 0.2.
In the case of VSPF, the “one-hybrid fitness for binding NBS DNA” value is not above 0.2.
With RQKA, the “one-hybrid fitness for binding NBS DNA” value turned out to be 0.339.
For the variant GGIT, the “one-hybrid fitness for binding NBS DNA” value is not above 0.2.
For EDAY, the “one-hybrid fitness for binding NBS DNA” value was not above 0.2.
Take EIGC: the “one-hybrid fitness for binding NBS DNA” value is not above 0.2.
Take SANC: the “one-hybrid fitness for binding NBS DNA” value was not above 0.2.
On to FWCS, for which the “one-hybrid fitness for binding NBS DNA” value was not above 0.2.
For HMRI the value was not above 0.2; for WPYE, not above 0.2.
Regarding PEPG, the “one-hybrid fitness for binding NBS DNA” value was not above 0.2.
For VGAV, the “one-hybrid fitness for binding NBS DNA” value is not above 0.2.
The same measure for GEGG: not above 0.2; for PEIP: not above 0.2.
For MQTD the value was not above 0.2.
For CPLV, the “one-hybrid fitness for binding NBS DNA” value is not above 0.2.
For the variant HTNT, the “one-hybrid fitness for binding NBS DNA” value was not above 0.2.
In the case of YSKG, the “one-hybrid fitness for binding NBS DNA” value is not above 0.2.
For the variant AWCT, the “one-hybrid fitness for binding NBS DNA” value was not above 0.2.
Regarding TATS, the “one-hybrid fitness for binding NBS DNA” value is not above 0.2.
The same measure for TPAD: not above 0.2.
As to RLIM, the “one-hybrid fitness for binding NBS DNA” value is not above 0.2.
The same measure for WVTD: not above 0.2; for RMNR: 0.545; for SNAR: not above 0.2.
The same measure for MDCS: not above 0.2.
PGIY: the “one-hybrid fitness for binding NBS DNA” value was not above 0.2.
Consider TWDL, for which the “one-hybrid fitness for binding NBS DNA” value is not above 0.2.
Turning to GLNL, the “one-hybrid fitness for binding NBS DNA” value was not above 0.2.
For WRTY the value was not above 0.2; for PCHG, not above 0.2.
For RIDE, the “one-hybrid fitness for binding NBS DNA” value was not above 0.2.
In the case of YTTL, the “one-hybrid fitness for binding NBS DNA” value was not above 0.2.
For DQPL the value was not above 0.2.
EPPL: the “one-hybrid fitness for binding NBS DNA” value is not above 0.2.
For the variant AMYH, the “one-hybrid fitness for binding NBS DNA” value is not above 0.2.
RLWQ: the “one-hybrid fitness for binding NBS DNA” value was not above 0.2.
For the variant HMTL, the “one-hybrid fitness for binding NBS DNA” value is not above 0.2.
Regarding QHCC, the “one-hybrid fitness for binding NBS DNA” value was not above 0.2.
For the variant HYIT, the “one-hybrid fitness for binding NBS DNA” value was not above 0.2.
For CLGT, the “one-hybrid fitness for binding NBS DNA” value is not above 0.2.
For DLRS the value was not above 0.2; for RKFE, not above 0.2; for WGLA, not above 0.2.
The same measure for SNVE: not above 0.2; for HFNI: not above 0.2.
The same measure for YIDK: not above 0.2.
Take SIGF: the “one-hybrid fitness for binding NBS DNA” value was not above 0.2.
Take RDTL: the “one-hybrid fitness for binding NBS DNA” value is not above 0.2.
On to IEAC, for which the “one-hybrid fitness for binding NBS DNA” value was not above 0.2.
As to WRVL, the “one-hybrid fitness for binding NBS DNA” value was not above 0.2.
In the case of SVIE, the “one-hybrid fitness for binding NBS DNA” value is not above 0.2.
As to KGNS, the “one-hybrid fitness for binding NBS DNA” value was not above 0.2.
Regarding FMLR, the “one-hybrid fitness for binding NBS DNA” value is not above 0.2.
For PDIW the value was not above 0.2; for PWSM, not above 0.2.
The same measure for MESG: not above 0.2.
The same measure for PPPW: not above 0.2; for HIII: not above 0.2; for KRSI: not above 0.2.
Regarding RIGH, the “one-hybrid fitness for binding NBS DNA” value was not above 0.2.
In the case of DWKG, the “one-hybrid fitness for binding NBS DNA” value is not above 0.2.
The same measure for YWCR: not above 0.2.
As for MVLT, the “one-hybrid fitness for binding NBS DNA” value is not above 0.2.
For NKYQ the value was not above 0.2; for HDDF, not above 0.2.
The same measure for RHDI: not above 0.2.
